{
  "source": "PubChem BioAssay AID588342",
  "about": "(National Center for Advancing Translational Sciences (NCATS), 2011)",
  "note": "Among all 360,000 compounds or so, about 25,000 (6.9%) were called active. Inconclusive results, whose numbers are uncertain, are shown with a selection of clear calls. Calls follow the shape of the dose curve; as a rule, active = well fitted inhibition curve with a large enough effect; inconclusive = small, poorly fitted or top-dose-only effect; inactive = flat fitted curve, though single readings scatter. Where the call is inconclusive, the potency comes from a doubtful curve fit. Potency is read from the fitted curve at half-maximal effect; tags tell the direction and shape of the fitted curve.",
  "data": [
    {"biological_target": "Luciferin 4-monooxygenase (Photinus pyralis) (UniProt P08659)", "sequence (P08659 whole entry, looked up)": "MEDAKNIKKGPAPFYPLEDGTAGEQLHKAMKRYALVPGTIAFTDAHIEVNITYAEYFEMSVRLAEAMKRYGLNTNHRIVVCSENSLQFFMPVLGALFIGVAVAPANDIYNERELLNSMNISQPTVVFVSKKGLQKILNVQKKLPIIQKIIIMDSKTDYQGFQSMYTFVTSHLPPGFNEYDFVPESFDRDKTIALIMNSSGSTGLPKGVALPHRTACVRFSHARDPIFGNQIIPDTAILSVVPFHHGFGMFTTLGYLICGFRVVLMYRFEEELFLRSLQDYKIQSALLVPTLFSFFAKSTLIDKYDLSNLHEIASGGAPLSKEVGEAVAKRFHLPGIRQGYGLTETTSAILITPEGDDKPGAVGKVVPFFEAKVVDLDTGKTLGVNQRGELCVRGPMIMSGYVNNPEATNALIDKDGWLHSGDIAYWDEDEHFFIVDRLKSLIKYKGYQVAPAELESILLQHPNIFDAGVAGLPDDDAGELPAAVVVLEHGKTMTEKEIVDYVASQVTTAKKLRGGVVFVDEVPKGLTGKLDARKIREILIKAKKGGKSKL", "experiment": "qHTS profiling assay for firefly luciferase inhibitor/activator using purifed enzyme and Km concentrations of substrates (counterscreen for miR-21 project); also: nearly all actives have a fitted effect of over 55% in size", "conditions": "purified FLuc, luminescence inhibition; series mostly up to 57.5 µM", "method_in_brief": "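Purified P. pyralis luciferase (10nM final) with 10uM D-luciferin and 10uM ATP (Km levels) in 50mM Tris acetate pH 7.5, 10mM Mg acetate, 0.01% Tween-20, 0.05% BSA; qHTS 6-point titration, ~60 µM downward; luminescence read.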", "values": [
      {"smiles": "Cc1ccc(CCNC(=O)c2cc(S(=O)(=O)N3CCCC3)cn2C)cc1", "Potency": "inconclusive: 6.01 µM [inhibitor, full curve]"},
      {"smiles": "Cc1ccc2onc(CC(=O)N3CCN(c4cccc(Cl)c4)CC3)c2c1", "Potency": "inconclusive: 26.9 µM [inhibitor, partial curve]"},
      {"smiles": "CCC(C)c1ccccc1N1CC(C(=O)N2CCN(C(=O)c3ccco3)CC2)CC1=O", "note": "(configuration not stated)", "Potency": "inactive"},
      {"smiles": "COc1ccc(-c2noc(CCC(=O)Nc3cccc(C)c3)n2)cc1", "Potency": "inconclusive: 19 µM [inhibitor, partial curve, poor fit]"},
      {"smiles": "CCS(=O)(=O)N1Cc2ccccc2CC1C(=O)OCC(=O)Nc1ccc(SC(F)F)cc1", "note": "(configuration not stated)", "Potency": "inconclusive: 37.9 µM [inhibitor, partial curve, poor fit]"},
      {"smiles": "C=CCSc1nc(N)c2c(C)c(C)sc2n1", "Potency": "active: 12 µM"},
      {"smiles": "CC(C)CS(=O)(=O)C1=NSC2=NC(=O)/C(=C\\c3ccc(OC(=O)c4ccco4)cc3)C(=N)N21", "Potency": "inconclusive: 23.9 µM [inhibitor, single point]"},
      {"smiles": "CCn1c(N)c(C(=O)Nc2ccccc2C(=O)OC)sc1=S", "Potency": "inconclusive: 30.1 µM [inhibitor, partial curve, poor fit]"},
      {"smiles": "CN(CC(=O)Nc1cccc(F)c1)C(=O)c1cn(-c2ccccc2)nc1-c1ccccc1", "Potency": "inconclusive: 37.9 µM [inhibitor, single point]"},
      {"smiles": "COCCSc1nnc(NC(=O)c2ccc([N+](=O)[O-])cc2)s1", "Potency": "inconclusive: 8.49 µM [inhibitor, partial curve, poor fit]"},
      {"smiles": "CCCCSc1nc2sc3c(c2c(=O)n1-c1ccccc1C)CC(C)(C)OC3", "Potency": "inactive"},
      {"smiles": "COc1cc2c(cc1NCc1ccc3c(c1)OCO3)oc1ccccc12", "Potency": "inconclusive: 23.9 µM [inhibitor, partial curve]"},
      {"smiles": "Cc1cc(C(=O)COc2ccc3ccc(=O)oc3c2)c(C)n1Cc1cccs1", "Potency": "inconclusive: 2.39 µM [inhibitor, full curve, poor fit]"},
      {"smiles": "C=CCN(c1ccccc1)S(=O)(=O)c1ccc(Cl)c(C(=O)OCC(=O)c2[nH]c(C)c(C(C)=O)c2C)c1", "Potency": "inactive"},
      {"smiles": "O=C(Cc1ccccc1F)Nc1ccc2c(c1)CCC2", "Potency": "active: 7.57 µM"},
      {"smiles": "O=C(CSc1nc(-c2ccccc2)ns1)NCC1CCCO1", "note": "(configuration not stated)", "Potency": "inconclusive: 37.9 µM [inhibitor, single point]"},
      {"smiles": "O=C(CNC(=O)c1cccs1)OCC(=O)c1ccccc1Cl", "Potency": "inactive"},
      {"smiles": "CC(C)Cc1ccc(C(=O)Nc2ccc(Cc3ccncc3)cc2)o1", "Potency": "inconclusive: 21.3 µM [inhibitor, partial curve, poor fit]"},
      {"smiles": "Cc1cc(C(=O)COC(=O)c2cccc(S(=O)(=O)N(C)C)c2)c(C)n1CC1CCCO1", "note": "(configuration not stated)", "Potency": "active: 0.953 µM"},
      {"smiles": "Cc1cccc(OC(=O)c2sc3ncn(C)c(=O)c3c2C)c1", "Potency": "active: 12 µM"},
      {"smiles": "CCOC(=O)c1c(C)[n+]([O-])c2ccc3c(non3O)c12", "Potency": "inconclusive: 26.9 µM [inhibitor, partial curve, poor fit]"},
      {"smiles": "O=C(CN1C(=O)c2ccccc2S1(=O)=O)c1cccc(Br)c1", "Potency": "active: 7.57 µM"},
      {"smiles": "CC(C)NC(=O)NC(=O)COC(=O)CCCSc1nc2ccccc2s1", "Potency": "inconclusive: 26.9 µM [inhibitor, partial curve, poor fit]"},
      {"smiles": "Cc1ccc(C)c(NC(=O)CN(C)C(=O)C2CCCC2)c1", "Potency": "inconclusive: 26.9 µM [inhibitor, single point]"},
      {"smiles": "CC(C)c1csc(CN2CCC(CO)(Cc3ccccc3)CC2)n1", "Potency": "active: 6.75 µM"},
      {"smiles": "COC(=O)CSc1nc2c(c(=O)n(C)c(=O)n2C)n1CCCc1ccccc1", "Potency": "inactive"},
      {"smiles": "Cc1ccc(CSc2nnc(SCC(=O)N/N=C/C=C/c3ccco3)s2)cc1", "Potency": "inconclusive: 9.53 µM [inhibitor, partial curve, poor fit]"},
      {"smiles": "O=C(Nn1c(-c2ccc(Br)cc2)nc2ccccc2c1=O)c1cccnc1", "Potency": "inconclusive: 30.1 µM [inhibitor, partial curve, poor fit]"},
      {"smiles": "CCC1(c2ccc(F)cc2)NC(=O)N(CC(=O)Nc2ccc(-c3nc4ccc(C)cc4s3)cc2)C1=O", "note": "(configuration not stated)", "Potency": "active: 3.38 µM"},
      {"smiles": "Cc1ccc2c(COC(=O)c3ccccc3Br)cc(=O)oc2c1", "Potency": "active: 2.69 µM"},
      {"smiles": "CCC(=O)OCC(=O)Nc1ccc2c(c1)OCO2", "Potency": "inconclusive: 26.9 µM [inhibitor, partial curve, poor fit]"},
      {"smiles": "COc1ccc(NS(=O)(=O)c2ccc(N3CCCC3)c(NC(=S)Nc3cccc(S(=O)(=O)N(C)C)c3)c2)cc1", "Potency": "inconclusive: 21.3 µM [inhibitor, partial curve, poor fit]"},
      {"smiles": "O=C(CSc1nnc(Nc2ccccc2)s1)NCC1CCCO1", "note": "(configuration not stated)", "Potency": "inconclusive: 23.9 µM [inhibitor, partial curve]"},
      {"smiles": "CC(C)(C)n1ncc2c(=O)n(CC(=O)NCc3ccccc3Cl)cnc21", "Potency": "active: 3.01 µM"},
      {"smiles": "CCN1CCN(Cc2c(O)ccc3oc(C)c(C(=O)Nc4cccc(C(F)(F)F)c4)c23)CC1", "Potency": "inactive"},
      {"smiles": "COc1ccccc1C(=O)Nc1cccc(Oc2c(F)c(F)c(F)c(F)c2F)c1", "Potency": "inactive"},
      {"smiles": "O=C(NC1CCCC1)c1ccccc1-c1nc2ccccc2[nH]1", "Potency": "inactive"},
      {"smiles": "Nn1c(SCC(=O)Nc2ccccc2)nnc(Cc2ccccc2)c1=O", "Potency": "inactive"},
      {"smiles": "COc1ccc(CC(=O)Nc2nc3c(s2)CCCC3)cc1", "Potency": "inconclusive: 23.9 µM [inhibitor, partial curve, poor fit]"},
      {"smiles": "CCCC(=O)Nc1cccc(Oc2ccc3c(c2)C(=O)NC3=O)c1", "Potency": "inconclusive: 26.9 µM [inhibitor, single point]"},
      {"smiles": "Cc1cc(C)c2c(c1)c(C)cc1nnc(SCC(=O)c3ccccc3)n12", "Potency": "inactive"},
      {"smiles": "c1ccc(Nc2nc3ccccc3n3nnnc23)cc1", "Potency": "inconclusive: 19 µM [inhibitor, partial curve, poor fit]"},
      {"smiles": "COc1ccc(CCNC(=O)c2ccc(Br)cc2)cc1", "Potency": "inconclusive: 3.79 µM [inhibitor, partial curve, poor fit]"},
      {"smiles": "O=C(Cc1c[nH]c2ccccc12)NCc1ccc2c(c1)OCO2", "Potency": "inconclusive: 26.9 µM [inhibitor, single point]"},
      {"smiles": "O=C(CNC(=O)c1ccccc1)OCC(=O)c1ccccc1Cl", "Potency": "inactive"},
      {"smiles": "Cc1ccc(S(=O)(=O)NC(=O)c2cc(C)n(-c3ccc(N(C)C)cc3)c2C)cc1", "Potency": "inconclusive: 21.3 µM [inhibitor, single point]"},
      {"smiles": "O=C(O)c1ccc(-c2sc(Nc3ccccc3)n[n+]2-c2ccccc2)cc1", "Potency": "inconclusive: 37.9 µM [inhibitor, single point]"},
      {"smiles": "O=C(c1cc(COc2c(F)cccc2F)on1)N1CCC(c2ccccc2F)C1", "note": "(configuration not stated)", "Potency": "active: 15.1 µM"},
      {"smiles": "Cc1cc(O)cc(O)c1C(=O)Cc1cnn(-c2ccccc2)c1", "Potency": "inconclusive: 26.9 µM [inhibitor, partial curve]"},
      {"smiles": "CC(C)c1ccc(NC(=O)C(c2ccccc2)N2CCN(C(=O)c3ccco3)CC2)cc1", "note": "(configuration not stated)", "Potency": "inconclusive: 19 µM [inhibitor, partial curve]"},
      {"smiles": "O=C(Nc1cccc(F)c1)NC1(C(=O)N2CCOCC2)CCCCC1", "Potency": "inactive"},
      {"smiles": "COc1ccc(-c2c(C)c3ccc(O)c(CN4CCOCC4)c3oc2=O)cc1OC", "Potency": "inactive"},
      {"smiles": "CC(=O)Nc1ccc(C(=O)Nc2cccc(-c3cnc4ccccc4n3)c2)cc1", "Potency": "inactive"},
      {"smiles": "CCOc1ccc(-c2nnc(-c3cccs3)o2)cc1", "Potency": "active: 0.675 µM"},
      {"smiles": "CCCN1C(=O)c2ccc(C(=O)Nc3cc(C)ccc3O)cc2C1=O", "Potency": "active: 3.38 µM"},
      {"smiles": "C=CCn1cnc2c(nnn2-c2ccc(C)c(C)c2)c1=O", "Potency": "inconclusive: 37.9 µM [inhibitor, single point]"},
      {"smiles": "O=C(Oc1cccc2c(=O)[nH]ccc12)c1ccccc1", "Potency": "inactive"},
      {"smiles": "Cn1c(SCC(=O)c2ccc3c(c2)Cc2ccccc2-3)nnc1-c1ccccc1", "Potency": "inconclusive: 21.3 µM [inhibitor, partial curve, poor fit]"},
      {"smiles": "CCc1ccc(-c2nc(SCC(=O)N3CCOCC3)n[nH]2)cc1", "Potency": "active: 16.9 µM"},
      {"smiles": "CS(=O)(=O)N1CCN(c2ccccc2NC(=O)c2cc(Br)ccc2Cl)CC1", "Potency": "inactive"},
      {"smiles": "COC(=O)c1ccc(NC(=O)CSc2nc(N)c(NC(=O)c3ccc(Br)o3)c(=O)[nH]2)cc1", "Potency": "inconclusive: 33.8 µM [inhibitor, partial curve, poor fit]"},
      {"smiles": "Cc1ccccc1OCC(=O)Nc1ccccc1-c1ccccc1", "Potency": "active: 4.78 µM"},
      {"smiles": "CCc1cc2c(cc3c(=O)n(CC(=O)NCCc4ccc(OC)cc4OC)nc(CC)n32)s1", "Potency": "inactive"},
      {"smiles": "COc1nc(-c2ccccc2)cc(-c2ccc(OC)c(OC)c2)n1", "Potency": "inconclusive: 16.9 µM [inhibitor, partial curve, poor fit]"},
      {"smiles": "Cc1ccc(S(=O)(=O)Oc2ccc(C)cc2/C=N/N=C2\\NC(=O)C(C)S2)cc1", "note": "(configuration not stated)", "Potency": "active: 9.53 µM"},
      {"smiles": "CC1(C)SC2c3ccccc3C(=O)N2[C@@H]1C(=O)O", "note": "(some centres not stated)", "Potency": "inactive"},
      {"smiles": "CCOc1ccc(C2=C/C(=C/c3cccnc3)C(=O)O2)cc1", "Potency": "inconclusive: 7.57 µM [inhibitor, partial curve, poor fit]"},
      {"smiles": "Cc1ccc2c(-c3csc(N)n3)c[nH]c2c1", "Potency": "inconclusive: 30.1 µM [inhibitor, partial curve, poor fit]"},
      {"smiles": "O=[N+]([O-])c1ccc(O)c(/C=N/Nc2ccccc2Cl)c1", "Potency": "active: 4.78 µM"},
      {"smiles": "CC1(O)CC(c2ccc(Cl)cc2)=NN1C(=O)c1ccc([N+](=O)[O-])cc1", "note": "(configuration not stated)", "Potency": "inconclusive: 30.1 µM [inhibitor, single point]"},
      {"smiles": "Cc1cnc(C(=O)OCC(=O)NC23CC4CC(CC(C4)C2)C3)cn1", "Potency": "inactive"},
      {"smiles": "CNC(=O)C(C)NS(=O)(=O)c1ccc(F)cc1", "note": "(configuration not stated)", "Potency": "inconclusive: 8.49 µM [inhibitor, partial curve, poor fit]"}
    ]}
  ]
}
